Among all 230,000 compounds or so, about 3,600 (1.6%) were called active. Inconclusive results, whose numbers are uncertain, are shown with a selection of clear calls. Calls follow the shape of the dose curve; as a rule, active = well fitted inhibition curve with a large enough effect (not every such curve was filed as active); inconclusive = small, poorly fitted or top-dose-only effect, or another doubt; inactive = no such curve, though single readings can be large or run the other way. Potencies beside an inconclusive call are fits to weak or partial responses and may not hold up.
Target: Lysine-specific demethylase 4E (Homo sapiens) (UniProt B2RXH2)
Chain of UniProt B2RXH2 (B2RXH2 whole entry, looked up, the tested form may be a part): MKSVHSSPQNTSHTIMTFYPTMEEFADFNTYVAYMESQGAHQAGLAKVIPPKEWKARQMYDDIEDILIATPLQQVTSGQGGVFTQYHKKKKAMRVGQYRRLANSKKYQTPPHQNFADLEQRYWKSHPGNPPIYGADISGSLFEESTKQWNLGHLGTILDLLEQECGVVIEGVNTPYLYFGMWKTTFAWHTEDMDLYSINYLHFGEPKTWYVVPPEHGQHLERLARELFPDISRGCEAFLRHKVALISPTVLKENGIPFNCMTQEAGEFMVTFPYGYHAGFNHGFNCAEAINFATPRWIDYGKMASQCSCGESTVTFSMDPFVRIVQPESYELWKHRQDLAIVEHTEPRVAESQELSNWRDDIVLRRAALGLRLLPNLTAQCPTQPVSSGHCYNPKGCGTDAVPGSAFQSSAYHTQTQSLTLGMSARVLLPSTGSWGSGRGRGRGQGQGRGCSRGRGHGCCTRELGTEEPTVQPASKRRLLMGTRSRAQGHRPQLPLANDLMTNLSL
Experiment: qHTS Assay for Inhibitors of Human Jumonji Domain Containing 2E (JMJD2E)
Settings: JMJD2E catalytic domain, FDH-coupled NADH fluorescence (FDH is formaldehyde dehydrogenase); series mostly up to 57.1 µM
Also: nearly all actives have a fitted effect of over 50% in size.
Potency is read from the fitted curve at half-maximal effect; tags tell the direction and shape of the fitted curve.

Row | SMILES | Potency
1 | CCCC(=O)Nc1nc(C)c(C(C)=O)s1 | inactive
2 | COc1ccc(NCC(=O)N/N=C/c2c(C)nn(Cc3ccccc3)c2Cl)cc1 | inconclusive: 39.8 µM [inhibitor, single point]
3 | CCN(CCNC(=O)C1CCN(Cc2nc(-c3cccc(Cl)c3)oc2C)CC1)c1ccccc1 | inconclusive: 39.8 µM [inhibitor, single point]
4 | CCSS(=O)(=O)c1cccc2cccnc12 | active: 3.16 µM
5 | O=C(CSc1ncccc1-c1nc2ccccc2[nH]1)N1CCCCC1 | inconclusive: 35.5 µM [inhibitor, partial curve]
6 | Cc1ccc(Oc2ccc(C=O)cn2)cc1 | inconclusive: 28.2 µM [inhibitor, single point]
7 | COc1ccc(Cl)cc1-c1n[nH]c(=S)o1 | inconclusive: 31.6 µM [inhibitor, partial curve]
8 | O=C(c1cccc(S(=O)(=O)N2CCOCC2)c1)N1CCCc2ccccc21 | inactive
9 | CSc1nnc(-c2ccccc2N=Cc2c(C)[nH]n(-c3ccc4ccccc4c3)c2=O)c(=O)[nH]1 | inactive
10 | N/C(=N\OS(=O)(=O)c1ccc2ccccc2c1)c1ccccn1 | inconclusive: 25.1 µM [inhibitor, partial curve]
11 | NC(=O)c1ccc(NC(=O)COC(=O)c2c3c(nc4ccccc24)/C(=C\c2cccs2)CCC3)cc1 | inconclusive: 20 µM [inhibitor, partial curve]
12 | O=C(O)c1ccc2cccnc2c1O | inactive
13 | CC1(C)Oc2ccc3ccc(=O)oc3c2-c2cnoc21 | inconclusive: 1.78 µM [inhibitor, partial curve]
14 | CC(=O)N1CCN(c2ccc(NCc3ccc4c(c3)OCO4)cc2)CC1 | inconclusive: 15.8 µM [inhibitor, partial curve]
15 | C=CCCCCCCCCC(=O)Nc1ncccn1 | inactive
16 | COC(=O)[C@@H](NC(=O)O[C@@H]1C(=O)c2cc(OC)ccc2O[C@H]1c1ccc(OC)c(Br)c1)C(C)C | inconclusive: 39.8 µM [inhibitor, single point]
17 | C[n+]1c(/C=C/c2ccc3c(c2)OCO3)ccc2ccccc21 | inconclusive: 20 µM [inhibitor, single point]
18 | CC(NC(=O)CCSc1nc(-c2ccc3c(c2)OCO3)cc(C(F)(F)F)n1)c1ccccc1 (stereo not drawn) | inconclusive: 28.2 µM [inhibitor, partial curve]
19 | c1ccc(-n2cnc3cc(NCc4ccccn4)ccc32)cc1 | inconclusive: 25.1 µM [inhibitor, single point]
20 | O=C(N/N=C/c1cn(-c2cccs2)nc1-c1ccccc1)c1ccccc1Br | inconclusive: 35.5 µM [inhibitor, single point]
21 | CCN(Cc1ccccc1)C(=O)c1nn(-c2ccc(OC)cc2)c(=O)c2c1c1ccccc1n2C | inconclusive: 31.6 µM [inhibitor, single point]
22 | O=C1CCC(C(=O)OCc2cc(=O)oc3ccc4ccccc4c23)=NN1 | inconclusive: 20 µM [inhibitor, partial curve]
23 | COc1ccc2c(C)c(Cl)c(=O)oc2c1 | inconclusive: 28.2 µM [inhibitor, partial curve]
24 | CCOc1nc(NCc2ccco2)nc(Nc2ccccc2F)n1 | inactive
25 | COc1cc(OC)c(OC)cc1CN1CCc2ccccc2C1 | inactive

Row | SMILES | Potency
26 | O=C(NC(=S)Nc1cccc2cccnc12)c1ccccc1 | inactive
27 | COc1ccc(NS(=O)(=O)c2ccc(I)cc2)cc1N1CCN(C)CC1 | inconclusive: 39.8 µM [inhibitor, single point]
28 | NS(=O)(=O)c1ccc(CCNCC(=O)NC2CC2)cc1 | inconclusive: 39.8 µM [inhibitor, single point]
29 | O=C(N/N=C/c1ccc2c(c1)OCO2)c1ccc2c(c1)OCCO2 | inconclusive: 25.1 µM [inhibitor, single point]
30 | Cc1cc(C(=O)Nc2ccccc2C(F)(F)F)no1 | inactive
31 | COc1cc2[nH]c3c(=O)n(CCN4CCCCC4)cnc3c2cc1OC | inconclusive: 28.2 µM [inhibitor, partial curve]
32 | O=C(NC1CCCCC1)N(Cc1nc2ccccc2c(=O)[nH]1)C1CCCC1 | inconclusive: 39.8 µM [inhibitor, single point]
33 | CCc1ccc(-n2c(SCc3cc(=O)n4cc(Br)ccc4n3)nc3[nH]ncc3c2=O)cc1 | inconclusive: 39.8 µM [inhibitor, single point]
34 | NCCCCCc1nnc(SCC(N)=O)o1 | inactive
35 | O=C1Nc2ccc(Br)cc2C1=Nc1cccnc1 | inconclusive: 28.2 µM [inhibitor, single point]
36 | Cc1cc(C)c2c(N)c(C(=O)NCC3CCCCC3)sc2n1 | inconclusive: 25.1 µM [inhibitor, partial curve]
37 | CC(C)CCNC(=O)c1ccc(C2SCC(=O)N2Cc2ccco2)cc1 (stereo not drawn) | inactive
38 | CCN(CC)S(=O)(=O)c1cccc(C(=O)N/N=C(\C)c2ccc(O)cc2O)c1 | active: 25.1 µM
39 | Nc1nc2c3ccccc3nc(C3CC3)n2n1 | inconclusive: 28.2 µM [inhibitor, partial curve]
40 | Cn1nc(C(F)(F)F)c(-c2ccc(F)cc2)c1NC(=O)CSCC(=O)O | inconclusive: 20 µM [inhibitor, partial curve, poor fit]
41 | O=C(CCCn1c(SCC(=O)c2ccc(O)c(O)c2)nc2ccccc2c1=O)NCC1CCCO1 (stereo not drawn) | active: 8.91 µM
42 | CC1=CC(C2CC(=O)N(c3ccc(C)cc3)C2=O)CC2C(=O)N(c3ccc(C)cc3)C(=O)C12 (stereo not drawn) | inactive
43 | COCC(C)n1c(SCc2nc3ccccc3c(=O)[nH]2)nc2ccccc2c1=O (stereo not drawn) | inconclusive: 39.8 µM [inhibitor, single point]
44 | Cc1ccc(S(=O)(=O)N(CC(=O)NCCSCc2ccco2)c2ccc(F)cc2)cc1 | inactive
45 | O=C(COC(=O)c1cc(=O)[nH]c2ccccc12)NC(=O)NC1CCCCC1 | inconclusive: 39.8 µM [inhibitor, single point]
46 | O=[N+]([O-])c1ccc(N=NNc2ccccc2)cc1 | inactive
47 | CNc1nc(-c2ccccc2C(F)(F)F)nc2ccccc12 | inactive
48 | CSc1nc(-c2ccco2)cc(-c2ccccc2)c1C#N | inconclusive: 39.8 µM [inhibitor, single point]
49 | CCn1nnc(NC(=S)NC(=O)c2ccc(-c3cccc(Cl)c3)o2)n1 | inactive
50 | CCCn1c(-c2ccc(F)cc2)nc2c(NCCCN(CC)CC)nc(C)nc21 | inconclusive: 22.4 µM [inhibitor, partial curve]

Row | SMILES | Potency
51 | Cc1ccc(C(=O)c2coc3cc([N+](=O)[O-])c(O)c([N+](=O)[O-])c23)cc1 | inactive
52 | Cc1[nH]c2ccccc2c1C(c1ccncc1)N1CCCCC1 (stereo not drawn) | inactive
53 | O=C(Nn1cnnc1)c1cc2cc(Br)ccc2oc1=O | inconclusive: 35.5 µM [inhibitor, single point]
54 | COCCNC(=O)c1c(N)n(-c2ccccc2)c2nc3ccccc3nc12 | inconclusive: 31.6 µM [inhibitor, partial curve]
55 | Cc1cccc(NC(=O)COC(=O)c2cc(C)oc2C)c1 | inactive
56 | CCOC(=O)CSC1=C(C#N)C(c2ccco2)C(C(=O)Nc2cccc(C(F)(F)F)c2)=C(C)N1 (stereo not drawn) | inconclusive: 39.8 µM [inhibitor, single point]
57 | COc1ccc2[nH]c(=O)c(CN(CCO)C(=O)c3ccccc3F)cc2c1 | inconclusive: 25.1 µM [inhibitor, partial curve]
58 | COc1cc(/C=N\Nc2nc(-c3ccc(C)cc3)c(NC(C)=O)s2)ccc1O | inconclusive: 35.5 µM [inhibitor, single point]
59 | CSc1ncccc1C(=O)Nc1ccc(OC(F)(F)F)cc1 | inactive
60 | C[C@@H]1CC=C[C@H]2[C@H]1C(=O)N(Cc1ccccc1)[C@H]2c1ccc2ccccc2c1/C=C/c1ccccc1 | inconclusive: 6.31 µM [inhibitor, full curve]
61 | COc1cccc(C2C3=C(N=c4s/c(=C\c5ccc(O)cc5)c(=O)n42)c2ccccc2CC3)c1OC (stereo not drawn) | inactive
62 | O=C1CN(c2nc(-c3cccs3)nc3sc4c(c23)CCCC4)CCN1 | inconclusive: 25.1 µM [inhibitor, partial curve]
63 | COCC(=O)NCCSc1c(C)[nH]c2ccccc12 | inconclusive: 39.8 µM [inhibitor, single point]
64 | O=c1oc(-c2ccccc2)nc2c1cnn2-c1ccccc1 | inactive
65 | Cc1cc(C2=NNC(=NC3CC3)SC2)c(C)n1Cc1ccco1 | inactive
66 | CCOC(=O)c1c(C)oc2ccc(OCC(=O)N(CC)CC)cc12 | inconclusive: 39.8 µM [inhibitor, single point]
67 | CC1=NN(c2ccc(Cl)cc2)C(=O)C1C(c1cccc(O)c1)c1c(C)[nH]n(-c2ccc(Cl)cc2)c1=O (stereo not drawn) | active: 3.16 µM
68 | Cc1cc(N2C(=O)C3C4CCC(C4)C3C2=O)no1 (stereo not drawn) | inactive
69 | Cc1cc2c(cc1C)NC(CC(=O)NCc1ccccc1)C(=O)N2 (stereo not drawn) | inconclusive: 25.1 µM [inhibitor, partial curve]
70 | COC(=O)c1cc(=O)c2c(C)nc(C(Cl)(Cl)Cl)nc2[nH]1 | inconclusive: 39.8 µM [inhibitor, single point]
71 | CCOC(=O)C1=C(C)OC(N)=C(C#N)C1c1cc2c(cc1[N+](=O)[O-])OCO2 (stereo not drawn) | inconclusive: 31.6 µM [inhibitor, partial curve]
72 | Cc1nnc(NN)n(N)c1=O | inconclusive: 20 µM [inhibitor, partial curve, poor fit]
73 | COc1ccccc1-c1cc(C(=O)NCc2cccs2)no1 | inconclusive: 39.8 µM [inhibitor, single point]
